In PubChem BioAssay AID1347120 (National Center for Advancing Translational Sciences (NCATS), 2019):
Screen size: about 390,000 compounds; about 930 (0.24%) were called active. This list was built around the results that the source calls inconclusive (neither active nor inactive); the mix of calls is not that of the screen. Calls come from the whole dose curve; as a rule, active = well fitted activation curve with a large enough effect; inconclusive = small, poorly fitted or top-dose-only effect; inactive = no such curve, though single readings can be large or run the other way. Potencies of inconclusive entries are doubtful fits and often do not repeat.
Potency is the fitted concentration of half-maximal effect; tags give direction and shape of the fitted curve.

Test: qHTS for Suppressors of FUS Proteinopathy: Primary screen using FUS-linked yeast assay; note: nearly all actives have a fitted effect of over 55% in size;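 for growth rescue (activation): plate controls were DMSO vehicle for no effect and reference control for full effect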
Conditions: S. cerevisiae FUS-expressing, OD600, 24 h; Potency: growth rescue; growth rescue (activation): at 76.6 µM (top of the series)
Procedure, shortened: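 Read-out: OD at 600 nm after 24hr at 30C, reporting rescue of FUS-induced yeast toxicity. Cells at OD 0.005 in galactose (2%) minimal medium; compounds tested in a dilution series; CP55940 titration from 92uM final as control.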
In the case of `C=CCc1cc(C=O)cc(OC)c1OCc1ccc(Cl)cc1`, the Potency is reported as inconclusive: 50.1 µM [activator, single point].
For `Cc1cccc(N2CC(C(=O)Nc3nnc(SCC(=O)N4CCOCC4)s3)CC2=O)c1` (stereo unspecified), the Potency was active: 17.8 µM.
In the case of `CCOC(=O)Cn1c(-c2ccc(Cl)nc2)nc2ccccc21`, the growth rescue (activation) is reported as inconclusive: 25% [activator].
With `C[C@H](CO)N1C[C@H](C)[C@@H](CN(C)Cc2ccc(-c3ccccc3)cc2)Oc2c(NC(=O)Cc3ccccc3)cccc2C1=O` the Potency was inconclusive: 35.5 µM [activator, single point].
For `COc1ccc(S(=O)(=O)N2CCOC2CNC(=O)C(=O)NCCc2c[nH]c3ccccc23)cc1` (stereo unspecified), the Potency was inconclusive: 25.1 µM [activator, single point].
With `COc1ccc(S(=O)(=O)N2CCCCC2)cc1NC(=O)c1cccc(S(=O)(=O)N2CC(C)OC(C)C2)c1` (stereo unspecified) the Potency was inconclusive: 14.1 µM [activator, partial curve].
In the case of `Clc1ccccc1OCCCCN1CCCC1`, the Potency is reported as “inactive”.
For `O=C(CSc1ccccc1C(=O)O)NCc1ccco1`, the growth rescue (activation) was inconclusive: 56.8% [activator].
With `COc1ccc(NC(=O)c2cc(-c3ccncc3)nc3ccc(Br)cc23)cc1OC` the Potency was inconclusive: 31.6 µM [activator, single point].
In the case of `COC(=O)[C@@]1(Cc2ccc(F)cc2)[C@H]2c3cc(C(=O)N(C)C)n(Cc4nc5ccccc5[nH]4)c3C[C@H]2CN1C(=O)c1ccccc1`, the Potency is reported as inconclusive: 31.6 µM [activator, single point].
In the case of `CC(C)(C)OC(=O)N1CCC(c2c(C(=O)NCc3ccccc3)cnn2-c2cccc(F)c2)CC1`, the Potency is reported as inconclusive: 25.1 µM [activator, single point].
With `Cc1ccc(CNC(=O)COc2cc(O)c3c(c2)OC(C)(C)CC3=O)cc1` the Potency was inconclusive: 50.1 µM [activator, single point].
For `O=C(Cn1ncn2c(cc3sccc32)c1=O)NCCc1ccccc1`, the Potency was “inactive”.
With `O=C(CSc1nnc(-c2cccnc2)n1-c1ccc(Cl)cc1)c1ccc(F)cc1` the Potency was “inactive”.
With `CSc1ccc(NC(=O)C2(C)CCN2C(=O)Cc2ccc(C(C)(C)C)cc2)cc1` (stereo unspecified) the Potency was inconclusive: 39.8 µM [activator, partial curve, poor fit].
With `Cc1ccc(-c2nc3c(c(SCc4ccc(Br)cc4)n2)Cc2c(CO)cnc(C)c2O3)cc1` the Potency was “inactive”.
For `Cc1ccc(N2CC(C(=O)Nc3nnc(SCC(=O)NCC4CCCO4)s3)CC2=O)cc1` (stereo unspecified), the Potency was inconclusive: 10 µM [activator, partial curve].
In the case of `O=C(CSc1nc2c([nH]c3ccccc32)c(=O)n1-c1ccc(Cl)cc1)N1CCc2ccccc21`, the Potency is reported as “inactive”.
With `CCOc1ccc(CN(C)C(=O)CNC(=O)c2ccccc2)cc1` the Potency was “inactive”.
For `Cc1cccc(-c2nc(CN3CCCC(C(=O)N4CCN(c5cc(Cl)ccc5C)CC4)C3)c(C)o2)c1` (stereo unspecified), the Potency was inconclusive: 12.6 µM [activator, partial curve, poor fit].
In the case of `COc1cc(OC)cc(C(=O)NC(=S)NNC(=O)c2cnccn2)c1`, the Potency is reported as “inactive”.
With `Cc1ccc(C2c3[nH]c4ccccc4c3C[C@H]3C(=O)N(c4ccccc4C(=O)N4CCC(C(=O)O)CC4)C(=O)N23)cc1` (stereo partly specified) the Potency was inconclusive: 10 µM [activator, partial curve].
For `CCOC(=O)c1sc(N)c(C(=O)Nc2ccccc2)c1C`, the Potency was “inactive”.
With `Cc1ccc(CSc2nc3cccnc3n2Cc2ccc(C(=O)NCc3ccco3)cc2)cc1` the Potency was “inactive”.
In the case of `COc1ccc(C(=O)NC(=S)N(CCC(C)C)c2c(N)n(Cc3ccccc3)c(=O)[nH]c2=O)cc1`, the Potency is reported as inconclusive: 10 µM [activator, full curve, poor fit].
With `CCc1nc2ccc(C(=O)N3CCN(c4cc(Cl)ccc4C)CC3)cc2nc1CC` the Potency was inconclusive: 31.6 µM [activator, single point].
For `CCN(CC)CCN1C(=O)c2cccc3cc(N)cc(c23)C1=O`, the Potency was inconclusive: 31.6 µM [activator, partial curve, poor fit].
For `COCCN(C(=O)Cn1c(C(F)(F)F)nc2ccccc21)c1c(N)n(Cc2ccccc2)c(=O)[nH]c1=O`, the Potency was inconclusive: 28.2 µM [activator, partial curve, poor fit].
In the case of `COC(=O)[C@]12CCCCC=C1N(Cc1cccc3ccccc13)C(=O)[C@H](CC(=O)N1CCN(C(=O)c3ccco3)CC1)C2`, the Potency is reported as inconclusive: 31.6 µM [activator, single point].
For `CC1(C)CC[C@]2(C(=O)O[C@@H]3O[C@H](CO)[C@@H](O)[C@H](O)[C@H]3O)CC[C@]3(C)C(=CCC4[C@@]5(C)CC[C@H](O[C@@H]6O[C@H](C(=O)O)[C@@H](O[C@H]7OC[C@@H](O)[C@@H](O)[C@@H]7O)[C@H](O)[C@H]6O)C(C)(C)C5CC[C@]43C)[C@@H]2C1` (stereo partly specified), the Potency was inconclusive: 14.1 µM [activator, partial curve].
With `O=C(c1cc(-c2ccccc2)nc2ccccc12)N1N=C(C(F)F)CC1(O)C(F)F` (stereo unspecified) the Potency was “inactive”.
With `O=C(O)COCC(=O)N1CCN(C2c3ccccc3-c3ccccc32)CC1` the Potency was inconclusive: 3.98 µM [activator, partial curve, poor fit].
With `COC(=O)[C@H](NC(=O)c1cc(-c2ccccc2)sc1N)C(C)C` the Potency was inconclusive: 31.6 µM [activator, single point].
For `COc1ccc(CNc2ncnc3c2nc2n3CCCC2)cc1`, the Potency was “inactive”.
In the case of `COc1ccc2[nH]c3c(c2c1)CCNC3C1CC=C(C)CC1` (stereo unspecified), the Potency is reported as “inactive”.
With `Cc1ccc(C)c(NC(=S)NNC(=O)c2csc3c2CCC(C)C3)c1` (stereo unspecified) the Potency was inconclusive: 22.4 µM [activator, partial curve, poor fit].
For `COc1ccc(CCNC(=O)c2ccc3c(c2)N(Cc2ccccc2)C(=O)c2ccccc2S3=O)cc1OC` (stereo unspecified), the Potency was inconclusive: 31.6 µM [activator, partial curve, poor fit].
In the case of `CS(=O)(=O)Nc1ccc(C2=NN(C(=O)c3ccco3)C(c3ccc(F)cc3)C2)cc1` (stereo unspecified), the Potency is reported as inconclusive: 50.1 µM [activator, partial curve, poor fit].
For `O=C(CN1C(=O)C2(SCC(=O)N2c2cccc(Cl)c2)c2ccccc21)NCCc1ccccc1` (stereo unspecified), the Potency was “inactive”.
With `CCCCCC(=O)Nc1ccccc1N1CCN(c2ccccc2)CC1` the Potency was inconclusive: 11.2 µM [activator, partial curve, poor fit].
In the case of `Cc1c(Cl)cccc1-c1ccc(CNCCSc2nnnn2-c2ccccc2)o1`, the Potency is reported as inconclusive: 20 µM [activator, partial curve, poor fit].
In the case of `COC(=O)[C@]12CCCCC=C1N(Cc1ccc(OC)cc1)C(=O)[C@@H]2CC(=O)N1CCN(C(=O)c2ccco2)CC1`, the Potency is reported as inconclusive: 5.62 µM [activator, partial curve].
In the case of `Cc1ccc(NC(=O)c2ccc(F)cc2)cc1S(=O)(=O)N1CCCCCC1`, the Potency is reported as “inactive”.
In the case of `Oc1ccc(O)c(Cc2nc3ccccc3[nH]2)c1`, the Potency is reported as inconclusive: 50.1 µM [activator, single point].
In the case of `CCOc1ccc(CNC(=O)c2ccc3c(c2)c(C)c(C)n3Cc2ccccc2)cc1OC`, the Potency is reported as “inactive”.
With `CCCOC(=O)C1=C(C)NC2=C(C(=O)CCC2)C1c1cc(OC)ccc1OC` (stereo unspecified) the Potency was inconclusive: 10 µM [activator, partial curve, poor fit].
With `O=S1(=O)c2c(cccc2N2CCC[C@H]2CO)O[C@@H]2CCN1C2` the Potency was “inactive”.
In the case of `Cc1csc(NC(=O)Cc2ccc(Br)cc2)n1`, the Potency is reported as “inactive”.
With `COC(=O)C1(C(=O)OC)c2ccccc2N(S(=O)(=O)c2ccc(C)cc2)C1CC(=O)c1ccccc1` (stereo unspecified) the Potency was inconclusive: 25.1 µM [activator, partial curve, poor fit].
With `CC(=O)Oc1ccc(N2C(=O)C3C(C2=O)C(C(=O)c2ccc(Cl)cc2)N2CCCC32)cc1` (stereo unspecified) the Potency was inconclusive: 15.8 µM [activator, partial curve, poor fit].
For `COc1ccc(C)cc1NC(=O)C(Sc1nnc(-c2ccncc2)n1-c1ccc(Cl)cc1)c1ccccc1` (stereo unspecified), the Potency was active: 22.4 µM.
With `CCOC(=O)C1CCCN(c2nc3c(S(=O)(=O)c4ccc(CC)cc4)nnn3c3ccsc23)C1` (stereo unspecified) the Potency was inconclusive: 28.2 µM [activator, single point].
For `Cc1cc(C)c(S(=O)(=O)c2ccccc2)c(OC(=O)c2c(F)cccc2F)n1`, the Potency was “inactive”.
For `Cc1cccc(NC(=O)c2ccc(NCCc3ccccc3)c([N+](=O)[O-])c2)c1`, the Potency was “inactive”.
For `C#CCOCCOCCOCCNc1nc(N2CCN(C(=O)[C@H](CCCCN)n3cc(CCCC)nn3)CC2)nc(N2CCN(C(=O)[C@H](Cc3ccc(O)cc3)n3cc(CCO)nn3)CC2)n1`, the Potency was inconclusive: 7.94 µM [activator, partial curve].
In the case of `O=C(O)c1ccc(CSc2nc3ccc(NC(=O)c4ccccc4C(=O)O)cc3s2)cc1`, the Potency is reported as inconclusive: 39.8 µM [activator, partial curve, poor fit].
In the case of `Cc1nc(N)sc1-c1csc(Nc2cccc(O)c2)n1`, the Potency is reported as inconclusive: 39.8 µM [activator, single point].
For `COc1ccc(NC(=O)CN2C(=O)CC(c3ccc(C)c(C)c3)=Nc3ccccc32)cc1OC`, the Potency was inconclusive: 25.1 µM [activator, partial curve].
In the case of `CCC(CC)C(=O)Nc1ccc2nc(SCC(=O)N3CCCC3)sc2c1`, the Potency is reported as “inactive”.
In the case of `Cc1ccc(S(=O)(=O)N2CCCCC2)cc1C(=O)OC(C)C(=O)NC1CCCCC1C` (stereo unspecified), the Potency is reported as inconclusive: 17.8 µM [activator, partial curve, poor fit].
For `COc1ccc(C2Oc3ccccc3C3=C2C(c2cccs2)n2ncnc2N3)cc1` (stereo unspecified), the Potency was inconclusive: 10 µM [activator, full curve, poor fit].
